# Assay results: PubChem BioAssay AID504339 (National Center for Advancing Translational Sciences (NCATS), 2011)
# Several values for one entry are separate records, joined by “and”; a condition that tells them apart may be missing. Equal values may be shown once. The whole screen tested about 390,000 compounds, of which about 17,000 (4.4%) were called active. This list was built around the results that the source calls inconclusive (neither active nor inactive); the mix of calls is not that of the screen. Calls follow the shape of the dose curve; as a rule, active = well fitted inhibition curve with a large enough effect; inconclusive = small, poorly fitted or top-dose-only effect; inactive = no such curve, though single readings can be large or run the other way. A potency beside an inconclusive call is a rough fit, not a confirmed value. Some structures have more than one record in an assay (separate samples or runs), and their calls can disagree.
# Target: Lysine-specific demethylase 4A (Homo sapiens) (UniProt O75164)
# Experiment: qHTS Assay for Inhibitors of JMJD2A-Tudor Domain; also: nearly all actives have a fitted effect of over 50% in size
# Settings: AlphaScreen JMJD2A-Tudor / H3K4me3 peptide binding; activity change, negative = inhibition: at 114 µM (top of the series)
# % is scaled to controls: 0 for no effect and ±100 for the full control effect; potency is read from the fitted curve at half-maximal effect; tags tell the direction and shape of the fitted curve.
# Chain of UniProt O75164 (O75164 whole entry, looked up, the tested form may be a part): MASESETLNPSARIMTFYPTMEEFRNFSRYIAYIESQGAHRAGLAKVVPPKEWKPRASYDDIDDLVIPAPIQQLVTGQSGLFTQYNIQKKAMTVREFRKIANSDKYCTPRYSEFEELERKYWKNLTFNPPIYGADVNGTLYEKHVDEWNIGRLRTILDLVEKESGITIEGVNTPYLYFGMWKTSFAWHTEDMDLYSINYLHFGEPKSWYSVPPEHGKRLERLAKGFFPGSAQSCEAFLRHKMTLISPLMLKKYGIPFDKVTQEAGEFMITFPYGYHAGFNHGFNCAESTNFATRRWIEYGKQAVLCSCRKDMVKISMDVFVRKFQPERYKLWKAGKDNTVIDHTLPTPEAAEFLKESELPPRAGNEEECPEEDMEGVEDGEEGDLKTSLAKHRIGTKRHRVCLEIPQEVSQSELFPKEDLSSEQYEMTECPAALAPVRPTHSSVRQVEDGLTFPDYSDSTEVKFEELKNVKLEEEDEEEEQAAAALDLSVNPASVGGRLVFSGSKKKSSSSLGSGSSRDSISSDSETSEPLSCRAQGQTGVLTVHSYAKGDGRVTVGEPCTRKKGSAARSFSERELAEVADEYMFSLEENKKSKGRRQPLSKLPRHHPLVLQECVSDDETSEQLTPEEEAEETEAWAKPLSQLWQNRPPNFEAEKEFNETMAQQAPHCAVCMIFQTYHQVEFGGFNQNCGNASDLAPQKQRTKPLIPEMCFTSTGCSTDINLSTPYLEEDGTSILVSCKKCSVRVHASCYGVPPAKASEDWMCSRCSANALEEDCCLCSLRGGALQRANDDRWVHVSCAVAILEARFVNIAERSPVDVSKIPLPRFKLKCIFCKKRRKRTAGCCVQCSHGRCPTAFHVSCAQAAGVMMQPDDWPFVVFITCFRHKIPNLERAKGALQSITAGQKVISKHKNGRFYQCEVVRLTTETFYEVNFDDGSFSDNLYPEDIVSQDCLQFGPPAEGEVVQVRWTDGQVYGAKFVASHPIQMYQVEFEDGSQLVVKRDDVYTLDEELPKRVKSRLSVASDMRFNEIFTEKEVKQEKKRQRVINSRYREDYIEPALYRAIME
Structure (SMILES),Potency,"activity change, negative = inhibition"
COC(=O)c1ccc(CSc2nnc(-c3c[nH]c4ccccc34)n2-c2ccccc2)cc1,"inconclusive: 15.8 µM [inhibitor, full curve]",
COc1ccc(-c2nc(CN3CCCCC3c3nccn3C)c(C)o2)c(C)c1C (stereo unspecified),"inconclusive: 56.2 µM [inhibitor, partial curve]",
COc1cc(-c2noc(-c3ccc(NC4CCCC4)c([N+](=O)[O-])c3)n2)cc(OC)c1OC,,inactive: -1.32%
CC(NS(=O)(=O)c1ccc2c(c1)C(=O)c1cc(S(=O)(=O)NC(C)C(=O)O)ccc1-2)C(=O)O (stereo unspecified),active: 10 µM,
N#Cc1c(-n2cccc2C=O)sc2c1CCCC2,"inconclusive: 14.1 µM [inhibitor, full curve, poor fit]",
COc1ccc2cc(CN(C(=O)Nc3ccccc3OC)C3CCCC3)c(=O)[nH]c2c1,"inconclusive: 89.1 µM [inhibitor, single point]",
Cc1cc(C(=O)C(C)OC(=O)c2ccc(NC(=O)CC#N)cc2)c(C)n1-c1ccccc1 (stereo unspecified),"inconclusive: 25.1 µM [inhibitor, full curve]",
O=C(Nc1ccc(N2CCN(C(=O)c3ccccc3F)CC2)cc1)c1cncc(Br)c1,"inconclusive: 56.2 µM [inhibitor, partial curve]",
CCOc1ccc(S(=O)(=O)Nc2cc(Cl)ccc2O)cc1,"inconclusive: 7.08 µM [inhibitor, full curve]",
Cc1ccc(Cn2c(CNC(=O)c3ccc(Cl)c([N+](=O)[O-])c3)nc3cccnc32)cc1,,inactive: -28.4%
CCN(CC)S(=O)(=O)c1cc(C)c(C)cc1OCC(=O)NC1CCCC1,,inactive: -14.6%
Cc1ccccc1C(=O)NNc1ncnc2c1cnn2-c1cccc(Cl)c1,"inconclusive: 25.1 µM [inhibitor, full curve]",
O=C(Nc1nc(-c2ccco2)c(-c2ccco2)s1)C1CCC1,active: 39.8 µM,
CCOc1ccc(C2C(C#N)=C(C)NC3=C2C(=O)c2ccccc23)cc1 (stereo unspecified),"inconclusive: 8.91 µM [inhibitor, full curve, poor fit]",
CCOc1ccc(Nc2nc(C)c(NC(=O)c3cccc(F)c3)c(Nc3ccc(OCC)cc3)n2)cc1,"inconclusive: 6.31 µM [inhibitor, full curve]",
CC1(C)CC(NC(=O)c2ccc(Cl)c(S(=O)(=O)N(Cc3ccccc3)c3ccccc3)c2)CC(C)(C)N1,"inconclusive: 89.1 µM [inhibitor, partial curve]",
COc1ccc(N2CCN(C(=O)COC(=O)CSc3ccccc3)CC2)cc1,"inconclusive: 44.7 µM [inhibitor, full curve, poor fit]",
COc1cccc(-c2oc3ccc(C)cc3c(=O)c2O)c1,,inactive: 60.5%
O=C(O)c1ccc(Nc2nc(-c3ccc([N+](=O)[O-])cc3)nc3ccccc23)cc1,"inconclusive: 56.2 µM [inhibitor, partial curve]",
Cc1ccccc1OCCCN1CCCC1,active: 3.55 µM,
CCOc1ccc(CNC(=O)CN2N=C(c3ccccc3)CCC2=O)cc1OC,"inconclusive: 89.1 µM [inhibitor, single point]",

Structure (SMILES),Potency,"activity change, negative = inhibition"
CCOc1cc(/C=N/N=C2/NC(=O)C(CC(=O)O)S2)ccc1OCc1ccc(Cl)cc1 (stereo unspecified),active: 50.1 µM,
O=C(NCc1ccc2c(c1)OCO2)C1CCCCC1,"inconclusive: 89.1 µM [inhibitor, single point]",
CN1CCN(C(c2ccc(C(F)(F)F)cc2)c2ccc3cccnc3c2O)CC1 (stereo unspecified),active: 56.2 µM,
O=C(CCn1nc(-c2ccccc2)ccc1=O)NCCCN1CCCCCC1,"inconclusive: 39.8 µM [inhibitor, single point]",
COc1ccc(OC)c(NC(=O)Nc2nnc(N3CCC(C)CC3)s2)c1,"inconclusive: 79.4 µM [inhibitor, partial curve]",
CN(/N=C/C=C/c1ccccc1)c1cc(=O)n(C)c(=O)[nH]1,"inconclusive: 31.6 µM [inhibitor, single point]",
COc1ccc(C(=O)c2c3ccc([N+](=O)[O-])cc3[n+]([O-])n2CCCN)cc1,"inconclusive: 56.2 µM [inhibitor, partial curve]",
Cc1ccccc1Cn1c(=O)c2c(nc3n2CCCN3Cc2ccccc2)n(C)c1=O,"inconclusive: 44.7 µM [inhibitor, partial curve]",
Cc1cc(C)n(CCC(=O)N/N=C/c2c(O)ccc3ccccc23)n1,"inconclusive: 79.4 µM [inhibitor, partial curve]",
COc1cccc(NC(=O)[C@H](Cc2c[nH]c3ccccc23)NC(=O)[C@@H]2Cc3ccccc3CN2)c1,"inconclusive: 56.2 µM [inhibitor, partial curve]",
Cc1cccc(OCC(=O)Nc2ccc3c(c2)nc(CN2CCCCC2)n3C)c1,inactive and active: 89.1 µM,
CC(C)c1ccc(NC(=O)C2CCCN2S(=O)(=O)c2ccc3nc(-c4ccccc4)[nH]c3c2)cc1 (stereo unspecified),,inactive: -0.366%
COc1ccc(CN(C)C(=O)/C=C/c2ccc(S(=O)(=O)N3CCCCCC3)cc2)cc1,,inactive: -16.5%
O=C(C[C@H]1C[C@H](C(=O)N2CCOCC2)[C@@]2(CCC3CCCC3)c3[nH]c4cc(-c5ccco5)ccc4c3CCN2C1=O)NCc1cccc(C(F)(F)F)c1,"inconclusive: 28.2 µM [inhibitor, partial curve]",
CC(C)n1cnc2c(Nc3cccc(Cl)c3)nc(NCCCO)nc21,"inconclusive: 79.4 µM [inhibitor, partial curve]",
COc1ccc(Cl)cc1Nc1nc(-c2sc(NC(=O)CC(C)C)nc2C)cs1,"inconclusive: 50.1 µM [inhibitor, partial curve, poor fit]",
COc1ccc(C(=O)Oc2cc3c4c(c2)C(C)=CC(C)(C)N4C(=O)C3=O)cc1OC,"inconclusive: 3.55 µM [inhibitor, full curve]",
CCOC(=O)c1c(NC(=O)Cn2cnc([N+](=O)[O-])n2)sc2c1CCC(C)C2 (stereo unspecified),,inactive: -6.11% [at 57.1 µM]
CN(Cc1nccs1)c1ncnc2ccc(-c3ccc4c(c3)OCO4)cc12,active: 79.4 µM,
COc1ccc2nc(C)cc(N3CCC(C(N)=O)CC3)c2c1,,inactive: -3.78%
